According to patent US20250223366A1, “MONOCLONAL ANTIBODIES AND BISPECIFIC ANTIBODY AGAINST C-MET” (BIOTHEUS INC., priority 2022, published 2025):

Target: T1, EGFR which expressed on H292 cells (Homo sapiens, UniProt P00533)
T1 construct: H292 cells, which were human non-small cell lung cancer cells purchased from Procell, were capable of expressing EGFR and c-Met receptors; host or cells: H292 cells
Experiment: Blocking EGF-EGFR interaction on H292 cells (flow cytometry, Biotin-h.EGF)
Type: cell-based
Conditions: negative controls, FIG. 3
Description: H292 cells, which were human non-small cell lung cancer cells purchased from Procell, were capable of expressing EGFR and c-Met receptors. H292 cells were expanded to a suitable density, digested and detached from the cell culture flask, resuspended to 1×10^6 cells/ml, added to a 96-well flow plate, 100 μL per well, and centrifuged for later use. The antibody to be tested was subjected to 3-fold dilution with PBS, starting from 200 nM, and the diluted sample was added to the 96-well flow plate with cells, 100 μL/well, and incubated at 25° C. for 60 min. Biotin-h.EGF was diluted to 100 nM with PBS, added to the 96-well flow plate with cells, 100 μL/well, and incubated at 25° C. for 60 min. then washed twice with PBS. Streptavidin-FITC (purchased from Jackson) was diluted 100 times with PBS and added to the plate, 100 µL/well, incubated at 4° C. for 30 min, and washed twice with PBS. 100 μL/well of PBS was added to resuspend the cells, then the cells were detected on a CytoFlex (Beckman) flow cytometer, and the corresponding MFI was calculated.

- blocking interaction between EGF and EGFR: could not block
B1: 136 single-arm antibody: single Fab antibody; heavy chain SEQ ID NO: 44 (LALA, knob), light chain SEQ ID NO: 12, Fc-LALA-hole (antibody)
heavy: EVQLQESGPGLVKPSETLSLTCTVSGGSVTSVNYYWKWIRQPPGKGLEWIGYISYSGNTNYNPSLKSRVTISVDTSKNQFSLKLSSVTAADTAVYYCVRAPYYYMDVWSKGTTVTVSSASTKGPSVFPLAPSSKSTSGGTAALGCLVKDYFPEPVTVSWNSGALTSGVHTFPAVLQSSGLYSLSSVVTVPSSSLGTQTYICNVNHKPSNTKVDKKV[skipping human IgG1 Fc with changes]
light: DIVMTQSPSSVSASVGDRVTITCRASQGISSWLAWYQQKPGKAPKLLIYAVSSLQSGVPSRFSGSGSGTDFTLTISSLQPEDFATYFCQQANSFPLTFGGGTKVEIKRTVAAPSVFIFPPSDEQLKSGTASVVCLLNNFYPREAKVQWKVDNALQSGNSQESVTEQDSKDSTYSLSSTLTLSKADYEKHKVYACEVTHQGLSSPVTKSFNRGEC
modifications: Fc-LALA-hole chain lacks entry
